# The RNAGym collection of RNA variant scans (doi:10.1101/gad.245936.114)
# This sample is rich in variants without activity.
# B1: tRNA (parent)
# chain: CUCUCGGUAGCCAAGUUGGUUUAAGGCGCAAGACUUUAAUUUAUCACUACGAAAUCUUGAGAUCGGGCGUUCGACUCGCCCCCGGGAGAUUUUUUCCUCGAGCAA
# Variants of: B1
# Test: nonsense suppression (GFP-seq) (ratio to wild type); higher = more function; SUP4oc tRNA, yeast GFP reporter sort-seq
# In short: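 Nonsense suppression (GFPSEQ) is the median GFP/RFP ratio of each sorting bin, weighted by the variant's estimated share of cells in that bin and expressed relative to the unmutated parent tRNA. Yeast strains carried genome-integrated variants of an ochre-suppressor tRNA from a library with ~3% random mutations, plus a galactose-driven GFP ochre reporter and RFP, and were grown in raffinose/galactose medium containing 80 mg/L adenine. Cells were sorted into GFP/RFP bins, each bin was Illumina-sequenced (phred ≥30), and variants were kept only with ≥100 reads and ≥30 cells.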
row,Variant,nonsense suppression
1,U17C C29G,≤ 0.026
2,G18A A31G,≤ 0.026
3,G18A A31U,≤ 0.026
4,U17G G61U C81A,≤ 0.026
5,G18A A54C G65C,≤ 0.026
6,G18A A31C C34A,≤ 0.026
7,U17G U20A C79G,≤ 0.026
8,U17G A24G A30C A60C C64G,≤ 0.026
9,U16G U21G C77G,≤ 0.026
10,U17G C83A,≤ 0.026
11,U17G G19U G26A C80U,≤ 0.026
12,G18C C82A,≤ 0.026
13,U17C G78C,≤ 0.026
14,G18C G19C U71C,≤ 0.026
15,U17A C56A U57G,≤ 0.026
16,U17C U55C G59A G66C,≤ 0.026
17,G18C U20C C27U C34U,≤ 0.026
18,U17C U22A U70C,≤ 0.026
19,G18A A30G,0.0263
20,U17A G19U U20C,≤ 0.026
21,G18C C81G,≤ 0.026
22,U17C U21C G78A,≤ 0.026
23,G18A C83A A89G,≤ 0.026
24,G18A G25C C83A,≤ 0.026

row,Variant,nonsense suppression
1,U17G A24U C27U C64A U71G A89G,≤ 0.026
2,G18U A23C A33G C75U,≤ 0.026
3,U17A G65A G86U,≤ 0.026
4,G18A C34A,≤ 0.026
5,U17G A60C G67A,≤ 0.026
6,U17A A89G,≤ 0.026
7,U17C G18U C68U,≤ 0.026
8,U17G C68G A89C,≤ 0.026
9,G18C A33U A62U,≤ 0.026
10,U17G A60C,0.188
11,G18C G32A,≤ 0.026
12,U17G A24C,0.653
13,G18A C27U G59C,≤ 0.026
14,U17G C68G,≤ 0.026
15,G18C C27A A30G,≤ 0.026
16,U17C U76C,1.09
17,G18C G19A G66A,≤ 0.026
18,G18A G86A,≤ 0.026
19,G18C C27U G28A C68U G88C,≤ 0.026
20,G18A U58G G69A C77U,≤ 0.026
21,G18C A33G,≤ 0.026
22,U16G G66C,≤ 0.026
23,U16G G85U,1.06
24,U16G G85C,0.0285

row,Variant,nonsense suppression
1,U16G U57G U63C G78A C83G,≤ 0.026
2,U17G G59A C80A,≤ 0.026
3,U17C U63C G86U,≤ 0.026
4,U17G U21G U55A,≤ 0.026
5,G18A G25U G67C,≤ 0.026
6,U17G A23U U70G,≤ 0.026
7,U17A A30G C72G A89U,≤ 0.026
8,U17G G73C G85U A89G,≤ 0.026
9,U17A A31U G66A G67C,≤ 0.026
10,U17G G18U U55G G73A,≤ 0.026
11,G18C A30G G86U,≤ 0.026
12,U16G G32U C79A,≤ 0.026
13,U16G U17C U76G,≤ 0.026
14,U16G U20C C68A A87G,≤ 0.026
15,U17A U63A U70C G73C C77G,≤ 0.026
16,G18A U76A,≤ 0.026
17,U17A A23C C29A,≤ 0.026
18,U17G G61U,0.832
19,U17G G26C,≤ 0.026
20,G18A G32A,≤ 0.026
21,U16G U17G A30C U70G G84C,≤ 0.026
22,G18A A74C,≤ 0.026
23,G18C G59A,≤ 0.026
24,G18C G59C,≤ 0.026

row,Variant,nonsense suppression
1,G18A C80G,≤ 0.026
2,G18A A31U A89C,≤ 0.026
3,U17A U58G C75G,≤ 0.026
4,G18A C29A C68A G78C,≤ 0.026
5,G18A G25U C27U G67C,≤ 0.026
6,U16G G28C C77A,≤ 0.026
7,U17A U58C A60U G73C,≤ 0.026
8,G18A C77A,≤ 0.026
9,U17A G25A A30G U58A,≤ 0.026
10,U17A G32A G78C,≤ 0.026
11,U16G G19C C68A,≤ 0.026
12,G18C U76G,≤ 0.026
13,G18C A31G U76C,≤ 0.026
14,U17G A30U C34G G66A,≤ 0.026
15,U17A A30G,0.369
16,U17G A30U G78U,≤ 0.026
17,U17G A31G G78C C81U,≤ 0.026
18,U17C G18A,≤ 0.026
19,U17C G18C,≤ 0.026
20,U17A G19U U22A G28C A54G,≤ 0.026
21,U17G C27U C34U C82U,≤ 0.026
22,U17C G67U,≤ 0.026
23,U17G G65A,≤ 0.026
24,U17G G65C,≤ 0.026

row,Variant,nonsense suppression
1,G18A U22C,≤ 0.026
2,G18A C64G,≤ 0.026
3,U16G U21C,0.905
4,U16G U21G,1.1
5,U17G A54C C81G,≤ 0.026
6,U17A A30G C82A,≤ 0.026
7,G18U A24G C68U U76C,≤ 0.026
8,U17A A23G G84U,≤ 0.026
9,U17C C68A C82U,≤ 0.026
10,U17A C64U C79G,≤ 0.026
11,U17G C64A G65C,≤ 0.026
12,U16G U20A C34G,≤ 0.026
13,G18A A87U,≤ 0.026
14,G18C G19C C29A U70C,≤ 0.026
15,G18A U22A G59A,≤ 0.026
16,U17A U76A G86C,≤ 0.026
17,G18C C29U G65C G84A,≤ 0.026
18,G18A A23G G25A A33G A62G G67C,≤ 0.026
19,U17C G28U A30C,≤ 0.026
20,U17G G66C,≤ 0.026
21,U16G G25C G59U G78U G84A,≤ 0.026
22,U17G C56G U63G G69A U76G,≤ 0.026
23,G18C U55A,≤ 0.026
24,G18C U55C,≤ 0.026

row,Variant,nonsense suppression
1,U17G G25A,≤ 0.026
2,U17G G25U,≤ 0.026
3,U17A C27G,≤ 0.026
4,U17G U63A G73C G78A C83G,≤ 0.026
5,U17C G28C G85U,≤ 0.026
6,U17G U22C G28U U71C C81G,≤ 0.026
7,U17C A30G A31C C68A,≤ 0.026
8,U16G U58C C64A C80U,≤ 0.026
9,U17C C82A,≤ 0.026
10,U16G U20G A23U C56G A62U G69U U70G,≤ 0.026
11,U17G G19C G69U,≤ 0.026
12,U17C A23C G26U,≤ 0.026
13,G18U A24C G69C,≤ 0.026
14,U17C A24G G61C,≤ 0.026
15,U17C U20G C27U G59C,≤ 0.026
16,G18C C77U G86A,≤ 0.026
17,G18U A23U C56A A60U,≤ 0.026
18,G18U A30U C68U,≤ 0.026
19,U17C C34A U63A U70C,≤ 0.026
20,G18C G25C A30G,≤ 0.026
21,U17A U57C G73C,≤ 0.026
22,U17G G69C,≤ 0.026
23,U16G G25U,≤ 0.026
24,U16G G25C,0.2

row,Variant,nonsense suppression
1,U16G G25A,≤ 0.026
2,U17A G26A C34G,≤ 0.026
3,U17C A89U,≤ 0.026
4,U17G U21G,0.717
5,U17G U21A,1.16
6,U17C A87G,0.226
7,G18A C81G,≤ 0.026
8,G18C G19C A54G A62U,≤ 0.026
9,G18C A33U G59U,≤ 0.026
10,G18A A60U,≤ 0.026
11,U17A G78A A87U,≤ 0.026
12,U17G G32A,≤ 0.026
13,U17A U22C C27A,≤ 0.026
14,U17G C56U,≤ 0.026
15,U17A U63A U76C,0.155
16,G18A A54C U55A U58A G61U G67C,≤ 0.026
17,G18C C77G G85A,≤ 0.026
18,U17G A33U U63C G65C,≤ 0.026
19,U16G G25C A54U,≤ 0.026
20,U17G G18C A24G G28A U57G C83U,≤ 0.026
21,G18C U21G A24C A33U U57C C75U,≤ 0.026
22,U17A G32C U71G,0.0947
23,G18C C72G A74G,≤ 0.026
